No constants are given. Whether binding was seen depends on the method and setting. In cells and extracts the contact can be indirect. Some binding calls cover weakened binding; strength is not graded here. For part of these data: Tags and fused reporters may be left off the sequences shown. Values belong to the binder of their own block, whether it stands above or below them.
Tests used:
[1] = molecular target: Flag-tagged BECN1[150-241] (UniProt Q14457); experiment: co-IP; HEK293T co-transfected with Flag-tagged BECN1 (full length or deletion mutants) and ASPP2-V5(1-360), EBSS 6 h at 24 h after transfection; IP with anti-Flag, western blot
[2] = molecular target: p65/RelA, endogenous (human (endogenous in HCC-LM3)), Q04206; experiment: co-IP; HCC-LM3 lysates, immunoprecipitated with anti-p65/RelA, western blot; with or without overexpression of ASPP2; details: remark: other sources report otherwise
[3] = molecular target: T1, ankyrin-repeat-containing, SH3-domain-containing, and proline-rich region-containing protein 2 (ASPP2), endogenous (human (endogenous in HCC-LM3)) (UniProt Q13625); experiment: co-IP; HCC-LM3 lysates, immunoprecipitated with anti-ASPP2, western blot; control cells, cells transfected with pASPP2 and ASPP2-silenced cells
T1 sequence: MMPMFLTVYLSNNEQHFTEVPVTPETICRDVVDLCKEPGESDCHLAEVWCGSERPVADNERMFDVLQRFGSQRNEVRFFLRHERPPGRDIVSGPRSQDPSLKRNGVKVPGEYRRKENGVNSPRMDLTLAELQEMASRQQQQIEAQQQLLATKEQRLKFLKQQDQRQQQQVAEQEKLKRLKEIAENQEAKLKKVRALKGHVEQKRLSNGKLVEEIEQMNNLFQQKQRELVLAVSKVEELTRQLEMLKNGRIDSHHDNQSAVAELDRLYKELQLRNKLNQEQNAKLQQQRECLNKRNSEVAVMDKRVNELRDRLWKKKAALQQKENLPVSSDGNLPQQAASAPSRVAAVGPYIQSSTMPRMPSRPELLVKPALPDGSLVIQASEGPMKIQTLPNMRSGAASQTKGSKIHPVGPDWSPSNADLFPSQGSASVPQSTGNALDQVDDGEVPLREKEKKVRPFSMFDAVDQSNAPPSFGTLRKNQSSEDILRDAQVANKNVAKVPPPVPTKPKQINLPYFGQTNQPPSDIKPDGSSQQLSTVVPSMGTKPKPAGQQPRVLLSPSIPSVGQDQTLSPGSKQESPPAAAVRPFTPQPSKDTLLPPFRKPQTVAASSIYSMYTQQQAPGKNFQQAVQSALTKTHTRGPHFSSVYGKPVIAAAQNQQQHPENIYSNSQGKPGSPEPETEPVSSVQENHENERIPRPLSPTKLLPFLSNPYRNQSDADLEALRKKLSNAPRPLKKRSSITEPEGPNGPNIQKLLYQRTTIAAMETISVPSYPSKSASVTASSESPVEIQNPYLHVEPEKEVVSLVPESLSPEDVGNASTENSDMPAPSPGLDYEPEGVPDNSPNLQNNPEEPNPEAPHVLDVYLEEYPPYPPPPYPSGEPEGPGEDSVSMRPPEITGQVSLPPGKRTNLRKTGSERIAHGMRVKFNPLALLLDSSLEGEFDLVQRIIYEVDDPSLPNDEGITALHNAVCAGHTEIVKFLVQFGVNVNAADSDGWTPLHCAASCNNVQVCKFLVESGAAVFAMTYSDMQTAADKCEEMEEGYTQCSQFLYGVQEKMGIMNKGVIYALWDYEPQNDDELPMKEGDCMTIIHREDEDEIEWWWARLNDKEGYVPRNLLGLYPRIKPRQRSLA

binding [1]: binds
B1: V5-tagged ASPP2(1-360) (domain or fragment, UniProt Q13625 1-360)
chain: MMPMFLTVYLSNNEQHFTEVPVTPETICRDVVDLCKEPGESDCHLAEVWCGSERPVADNERMFDVLQRFGSQRNEVRFFLRHERPPGRDIVSGPRSQDPSLKRNGVKVPGEYRRKENGVNSPRMDLTLAELQEMASRQQQQIEAQQQLLATKEQRLKFLKQQDQRQQQQVAEQEKLKRLKEIAENQEAKLKKVRALKGHVEQKRLSNGKLVEEIEQMNNLFQQKQRELVLAVSKVEELTRQLEMLKNGRIDSHHDNQSAVAELDRLYKELQLRNKLNQEQNAKLQQQRECLNKRNSEVAVMDKRVNELRDRLWKKKAALQQKENLPVSSDGNLPQQAASAPSRVAAVGPYIQSSTMPRMP

binding [2]: binds
B2: IκBα, endogenous, P25963 1-317 (protein)
chain: MFQAAERPQEWAMEGPRDGLKKERLLDDRHDSGLDSMKDEEYEQMVKELQEIRLEPQEVPRGSEPWKQQLTEDGDSFLHLAIIHEEKALTMEVIRQVKGDLAFLNFQNNLQQTPLHLAVITNQPEIAEALLGAGCDPELRDFRGNTPLHLACEQGCLASVGVLTQSCTTPHLHSILKATNYNGHTCLHLASIHGYLGIVELLVSLGADVNAQEPCNGRTALHLAVDLQNPDLVSLLLKCGADVNRVTYQGYSPYQLTWGRPSTRIQQQLGQLTLENLQMLPESEDEESYDTESEFTEFTEDELPYDDCVFGGQRLTL

binding [3]: binds
B3: IκBβ, endogenous (protein, UniProt Q15653 1-356)
chain: MAGVACLGKAADADEWCDSGLGSLGPDAAAPGGPGLGAELGPGLSWAPLVFGYVTEDGDTALHLAVIHQHEPFLDFLLGFSAGTEYMDLQNDLGQTALHLAAILGETSTVEKLYAAGAGLCVAERRGHTALHLACRVGAHACARALLQPRPRRPREAPDTYLAQGPDRTPDTNHTPVALYPDSDLEKEEEESEEDWKLQLEAENYEGHTPLHVAVIHKDVEMVRLLRDAGADLDKPEPTCGRSPLHLAVEAQAADVLELLLRAGANPAARMYGGRTPLGSAMLRPNPILARLLRAHGAPEPEGEDEKSGPCSSSSDSDSGDEGDEYDDIVVHSSRSQTRLPPTPASKPLPDDPRPV

Source: article PMC5260975
